{"source": "the BET-seq Pho4 binding data (Le et al. 2018)", "note": "The other results are listed elsewhere or left out. These are noisy estimates, calculated here from bound and input reads."}
{"target": "T1, Pho4 (S. cerevisiae) (UniProt P07270)", "T1 sequence": "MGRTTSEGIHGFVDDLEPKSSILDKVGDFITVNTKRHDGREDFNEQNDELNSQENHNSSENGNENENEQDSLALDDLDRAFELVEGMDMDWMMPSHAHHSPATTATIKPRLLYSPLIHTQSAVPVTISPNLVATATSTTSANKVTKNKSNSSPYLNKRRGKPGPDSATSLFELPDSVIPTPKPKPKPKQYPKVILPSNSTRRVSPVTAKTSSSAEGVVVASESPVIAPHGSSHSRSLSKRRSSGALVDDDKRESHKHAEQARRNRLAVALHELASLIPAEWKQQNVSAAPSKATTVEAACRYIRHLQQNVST", "assay": "relative binding free energy (BET-seq); higher = weaker binding", "conditions": "reference: library average", "units": {"relative binding free energy": "kcal/mol"}}
{"sequence": "TGAAGCACGTGGTATG", "relative binding free energy": -0.27}
{"sequence": "GGGTGCACGTGTACGG", "relative binding free energy": 0.06}
{"sequence": "ATGTTCACGTGATTAC", "relative binding free energy": 0.37}
{"sequence": "TCGGTCACGTGGCATG", "relative binding free energy": 0}
{"sequence": "TGTAACACGTGCGGGA", "relative binding free energy": -0.01}
{"sequence": "AATGTCACGTGGGGGG", "relative binding free energy": 0.04}
{"sequence": "TAGGTCACGTGTATGT", "relative binding free energy": 0.07}
{"sequence": "CAGGCCACGTGTTTGG", "relative binding free energy": -0.06}
{"sequence": "CTTTCCACGTGGTGGG", "relative binding free energy": 0.04}
{"sequence": "CTGAGCACGTGCTGTT", "relative binding free energy": -0.09}
{"sequence": "GTATGCACGTGTATAG", "relative binding free energy": -0.11}
{"sequence": "TGAGTCACGTGTTGAG", "relative binding free energy": 0.04}
{"sequence": "TTTTCCACGTGCTAGT", "relative binding free energy": 0.01}
{"sequence": "GGCGACACGTGGCAGG", "relative binding free energy": 0.01}
{"sequence": "ATGGTCACGTGACGAG", "relative binding free energy": 0.13}
{"sequence": "TAGGTCACGTGCGTGG", "relative binding free energy": -0.04}
{"sequence": "TCTTCCACGTGTAGTG", "relative binding free energy": 0.23}
{"sequence": "TTTATCACGTGTTAGT", "relative binding free energy": 0.15}
{"sequence": "ACAGTCACGTGTTAGG", "relative binding free energy": 0.12}
{"sequence": "AGATGCACGTGGTTTT", "relative binding free energy": 0}
{"sequence": "TTCTTCACGTGTGCAT", "relative binding free energy": 0.31}
{"sequence": "GTGAGCACGTGTAGGC", "relative binding free energy": -0.1}
{"sequence": "GGGGGCACGTGAGTAC", "relative binding free energy": 0.15}
{"sequence": "CGGAGCACGTGTGAGT", "relative binding free energy": -0.03}
{"sequence": "GCTTTCACGTGGGTAA", "relative binding free energy": 0.3}
{"sequence": "CTGATCACGTGGTGGG", "relative binding free energy": 0.09}
{"sequence": "GTTGCCACGTGAGGGG", "relative binding free energy": 0.11}
{"sequence": "GGAATCACGTGTAATT", "relative binding free energy": 0.32}
{"sequence": "TTGGTCACGTGTGCAG", "relative binding free energy": -0.06}
{"sequence": "GTGGCCACGTGGGATG", "relative binding free energy": -0.09}
{"sequence": "ATGTGCACGTGTTTCG", "relative binding free energy": 0.03}
{"sequence": "GGATTCACGTGCGGAT", "relative binding free energy": 0.24}
{"sequence": "TGCGTCACGTGTGGAG", "relative binding free energy": 0.07}
{"sequence": "GTTGACACGTGCAGGA", "relative binding free energy": 0.02}
{"sequence": "ATTTTCACGTGAGAAG", "relative binding free energy": 0.44}
{"sequence": "TGGGGCACGTGAACGC", "relative binding free energy": 0.07}
{"sequence": "TGCCGCACGTGATGGG", "relative binding free energy": -0.04}
{"sequence": "TGAATCACGTGGTATG", "relative binding free energy": 0.09}
{"sequence": "TGTAGCACGTGTTATA", "relative binding free energy": -0.18}
{"sequence": "CATTGCACGTGGGGTC", "relative binding free energy": -0.09}
{"sequence": "GTGTGCACGTGCTTGC", "relative binding free energy": -0.03}
{"sequence": "TGGGACACGTGGGCGT", "relative binding free energy": 0}
{"sequence": "GTGTACACGTGTAGAA", "relative binding free energy": 0.12}
{"sequence": "CGTGTCACGTGTGGCA", "relative binding free energy": 0.11}
{"sequence": "CTTTGCACGTGGGTAC", "relative binding free energy": -0.12}
{"sequence": "GAAGTCACGTGGAGGT", "relative binding free energy": 0.21}
{"sequence": "GTGTACACGTGTACTG", "relative binding free energy": 0.11}
{"sequence": "TCGTTCACGTGGTTGA", "relative binding free energy": 0.14}
{"sequence": "TGTTGCACGTGGCATT", "relative binding free energy": -0.09}
{"sequence": "TTTCGCACGTGTGTCA", "relative binding free energy": 0.07}
{"sequence": "TTAATCACGTGATTTA", "relative binding free energy": 0.18}
{"sequence": "AGTCTCACGTGTGTGA", "relative binding free energy": 0.2}
{"sequence": "ATGTACACGTGAAATT", "relative binding free energy": 0.53}
{"sequence": "AAGGGCACGTGTAGTA", "relative binding free energy": 0.01}
{"sequence": "ATTCGCACGTGTGTTG", "relative binding free energy": 0.03}
{"sequence": "TTAAACACGTGTTCTT", "relative binding free energy": -0.06}
{"sequence": "ATTCGCACGTGTAAGG", "relative binding free energy": 0.05}
{"sequence": "TAGTCCACGTGAGGTT", "relative binding free energy": 0.15}
{"sequence": "ATGATCACGTGGTCGG", "relative binding free energy": 0.03}
{"sequence": "AGTGGCACGTGAGATT", "relative binding free energy": 0.24}
{"sequence": "ATTTTCACGTGTTGTG", "relative binding free energy": 0.23}
{"sequence": "AAGAGCACGTGCAGGG", "relative binding free energy": -0.01}
{"sequence": "GTACGCACGTGGTGCT", "relative binding free energy": -0.18}
{"sequence": "GTCAGCACGTGTGCGG", "relative binding free energy": -0.13}
{"sequence": "CTAGACACGTGTTTGG", "relative binding free energy": 0.01}
{"sequence": "TGTTACACGTGGCCTT", "relative binding free energy": 0.04}
{"sequence": "GGAGGCACGTGGGATG", "relative binding free energy": -0.19}
{"sequence": "GCTTGCACGTGTGGTT", "relative binding free energy": 0.14}
{"sequence": "GGGCACACGTGAGTGG", "relative binding free energy": 0.21}
{"sequence": "ATGTACACGTGGAGAG", "relative binding free energy": -0.03}
{"sequence": "GGGTTCACGTGTGGAC", "relative binding free energy": 0.3}
{"sequence": "GATGGCACGTGGACGT", "relative binding free energy": 0.01}
{"sequence": "GGCTTCACGTGGTGCA", "relative binding free energy": 0.34}
